Data from PubChem BioAssay AID1347073 (National Center for Advancing Translational Sciences (NCATS), 2019).
The campaign covered roughly 45,000 compounds. About 200 (0.44%) were called active. Not shown: some 7% with an inconclusive outcome. The call rests on the fitted dose curve; in most records, active means well fitted activation curve with a large enough effect; inconclusive means small, poorly fitted or top-dose-only effect; inactive means no such curve, though single readings can be large or run the other way. This is one part of the list.

Test: qHTS of TDP-43 Inhibitors: NCGC Sytravon Library Screen; further: nearly all actives have a fitted effect of over 55% in size; on growth rescue (activation): 0% is about no effect
Conditions: yeast TDP-43 toxicity rescue, BacTiter-Glo growth, 24 h; series mostly up to 46.1 µM; growth rescue (activation): at the top concentration
How it was run: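 TDP-43-expressing yeast, pregrown in raffinose, seeded at OD600 0.02 in galactose medium with compound for 24 hr at 30 deg C. Growth read by BacTiter-Glo luminescence, so rescue of toxicity appears as activation.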
Potency means the concentration at half of the fitted maximal effect.

Compound | growth rescue (activation) | Potency
Cc1cc(C)cc(N(C(=O)c2csnn2)C(C(=O)NC(C)(C)C)c2cccnc2)c1 (centres undefined) | inactive: 18.8% | 
N#Cc1c(-c2cccc(Cl)c2)[nH]c(=S)[nH]c1=O | inactive: 4.44% | 
CC(C)(C)CN1CCNC(=O)C1CC(=O)NCCc1ccccc1F (centres undefined) | inactive: -1.12% | 
O=C1c2ccccc2NC2(CCCC2)N1NS(=O)(=O)c1ccccc1 | inactive: -1.24% | 
COc1cc(NC(=O)COC(=O)CNS(=O)(=O)c2ccc(F)c(F)c2F)cc(OC)c1 | inactive: -0.0696% | 
Cc1cc(O)c(C(=O)/C=C/c2ccccc2Br)c(=O)o1 | inactive: 5.13% | 
Cc1ccc(S(=O)(=O)CC(O)COc2ccccc2C#N)cc1 (centres undefined) | inactive: 0.937% | 
COc1ccc(-c2cc(C(=O)Nc3cccnc3Cl)no2)cc1 | inactive: 9.52% | 
COc1ccccc1N1C(=O)C2C(C(=O)c3ccccc3)=NN(c3ccc(C)cc3)C2C1=O (centres undefined) | inactive: 3.8% | 
CCCCCCn1nc(C(=O)N(CCCC)c2c(N)n(CCC)c(=O)[nH]c2=O)c2ccccc2c1=O | inactive: -3.74% | 
CC1=C(C#N)c2nc(N)c(C#N)c(C)c2/C1=C\c1ccc(OCC(=O)O)c(Cl)c1 | inactive: -7.18% | 
O=C(NN1CCOCC1)c1ccccc1NS(=O)(=O)c1ccc(F)cc1F | inactive: 13% | 
CC(C)(C)c1cc(NC(=O)CSc2nncs2)n(-c2ccccc2)n1 | inactive: 7% | 
CCCCc1nc2ccccc2c(=O)n1NC(=O)c1c(O)c2cccc3c2n(c1=O)CC3 | inactive: 14.9% | 
S=C(c1ccc(-c2cc(Cl)ccc2Cl)o1)N1CCCCC1 | inactive: -3.34% | 
NC(=O)NC(=O)COC(=O)c1ccc(OC(F)F)cc1 | inactive: 4.34% | 
NC(=O)C1CCN(C(=O)CN(c2cccc(Cl)c2)S(=O)(=O)c2ccccc2)CC1 | inactive: 7.79% | 
COc1cccc2cc(-c3nnc(SCC(=O)Nc4ccc(NC(C)=O)cc4)n3C)oc12 | inactive: 12.6% | 
O=C(COC(=O)c1ccc(Br)cc1)NCCc1ccccc1 | inactive: 10.2% | 
CC(C)(C)OC(=O)N1CCCC1C(=O)NCCc1ccccc1 (centres undefined) | inactive: 5.49% | 
COCCn1c(-c2ccc(C#N)cc2)nc2c1c(=O)[nH]c(=O)n2Cc1ccccc1 | inactive: 11.2% | 
Cc1ccc(Nc2ccc(S(=O)(=O)N3CCOCC3)cc2[N+](=O)[O-])cc1C | inactive: 14.1% | 
Cc1ccc(S(=O)(=O)NC(=O)Nc2cc(C)on2)cc1 | inactive: -13.3% | 
Cc1cc(C)n(CC(O)COc2ccc(Cl)cc2Cl)n1 (centres undefined) | inactive: 21.9% | 
COc1ccc(/C=C(/C#N)C(=O)Nc2ccccc2C)cc1C(=O)O | inactive: 7.84% | 
CNC(=S)NNC(=O)c1sccc1C | inactive: 12.7% | 
CC(NC(=O)c1ccc(Br)o1)c1ccc(-n2ccnc2)cc1 (centres undefined) | inactive: 10.7% | 

Compound | growth rescue (activation) | Potency
O=C(Nc1ccccc1Cl)c1cc[n+](Cc2ccc([N+](=O)[O-])cc2)cc1 | inactive: -1.58% | 
COc1ccccc1N(CC(=O)NC(C)C)S(=O)(=O)c1cccs1 | inactive: -10.6% | 
COc1cccc(CNC(=O)C2CCN(C(=O)c3sccc3-n3cccc3)CC2)c1 | inactive: -2.84% | 
Cc1ccc(NC(=O)COC(=O)c2ccc(Cl)cc2)cc1S(=O)(=O)N(C)C | inactive: 2.61% | 
COc1cc(C)ccc1OCCCOc1c(Cl)cccc1Cl | inactive: 13.8% | 
CN(C)c1ccc(-c2ccnc3c2CC(C)(C(=O)Nc2cccc(N(C)C)c2)O3)cc1 (centres undefined) | inactive: -3.92% | 
COc1ccc(CN(C(=O)c2ccco2)c2ccc(C)c(C)c2)cc1 | inactive: 25.6% | 
CCCCOC(=O)C1[C@H]2C(=O)N(c3ccccc3CC)C[C@]23C=C[C@H]1O3 (some centres undefined) | inactive: 3.29% | 
O=C(C[n+]1ccc2ccccc2c1)c1ccccc1 | inactive: 27.1% | 
CCC(Oc1ccccc1)C(=O)Nc1ccccn1 (centres undefined) | inactive: 15.2% | 
N#C/C(=C(/O)COc1ccc(Br)cc1)c1nnc2n1CCCCC2 | inactive: 6.94% | 
Nc1ccccc1C(=O)N=Nc1[nH]c(N)c2ccccc12 | inactive: -0.221% | 
CC(Oc1ccc(Br)cc1)C(=O)NCc1ccccn1 (centres undefined) | inactive: -6.45% | 
N#Cc1ccccc1NC(=O)c1cccc(COc2ccc(Cl)cc2Cl)c1 | inactive: 1.85% | 
Cc1csc(NC(=O)c2ccc(COc3ccccc3)o2)n1 |  | active: 17.8 µM
N#Cc1ccc(CSc2nc(N)cc(N)n2)cc1 | inactive: 3.44% | 
Cc1ccccc1Nc1nnc(SCC(=O)NCc2cccs2)s1 | inactive: 24.8% | 
CC(C)C(=O)N1CCN(c2ccccc2NC(=S)NC(=O)/C=C/c2ccco2)CC1 | inactive: 12.5% | 
Cc1c(N)cc(N)cc1C(=O)O | inactive: -4.13% | 
CCOC(=O)c1sc(Nc2ccc(F)cc2)nc1C | inactive: 18.9% | 
O=C(O)C(Cc1ccccc1)N=Cc1c(O)c2ccccc2oc1=O (centres undefined) | inactive: -9.56% | 
Cc1cccc(Nc2nc(NCc3ccco3)c3ccccc3n2)c1 | inactive: 2.5% | 
Oc1ccc2ccccc2c1C=NC1CCCCC1 | inactive: -38.8% | 
CCc1nc2ccc(C(=O)N(C)Cc3ccco3)cn2c1N(C)C(=O)Cc1ccccc1 | inactive: 4.21% | 
CCOP(=O)(NC12CC3CC(CC(C3)C1)C2)NC12CC3CC(CC(C3)C1)C2 | inactive: 8.03% | 
COc1cccc(N=C2SC(C(=O)Nc3cccc(Cl)c3)CC(=O)N2C)c1 (centres undefined) | inactive: 11.4% | 
CCC1(c2ccc(F)cc2)NC(=O)N(CC(=O)Nc2ccc(C(N)=O)cc2)C1=O (centres undefined) | inactive: 4.7% | 
